Reference: the supplement of paper PMC8728848
The list shows a part of the results.

Assays:
Assay in all cases: glycan array binding signal (z-score within array); higher = stronger binding
Conditions in all cases: glycan notation: IUPAC condensed, linker removed
[1] = target: Neu5Ac(a2-3)Gal(b1-4)[Fuc(a1-3)]GlcNAc
How it was run: (§1)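 Glycan array binding is given as a within-array Z-score, which can be read as non-binding when negative. The arrays, 3228 of them, came from the Consortium for Functional Glycomics database and were retained only where the protein sequence was available. Z-scores were averaged across arrays of the same protein sequence at different concentrations or buffers and across linkers.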

[2] = target: Neu5Ac(a2-3)Gal(b1-4)[Fuc(a1-3)]GlcNAc(b1-3)Gal
How it was run: as §1

[3] = target: Neu5Ac(a2-3)Gal(b1-4)[Fuc(a1-3)]GlcNAc(b1-3)Gal(b1-4)GlcNAc
How it was run: as §1

[4] = target: Neu5Ac(a2-3)Gal(b1-4)[Fuc(a1-3)]GlcNAc(b1-3)Gal(b1-4)[Fuc(a1-3)]GlcNAc(b1-3)Gal(b1-4)[Fuc(a1-3)]GlcNAc
How it was run: as §1

[5] = target: Neu5Ac(a2-3)Gal(b1-4)[Fuc(a1-3)]GlcNAc(b1-6)[Gal(b1-3)]GalNAc
How it was run: as §1

[6] = target: Neu5Ac(a2-3)Gal(b1-4)[Fuc(a1-3)]GlcNAc(b1-6)[Neu5Ac(a2-3)Gal(b1-3)]GalNAc
How it was run: as §1

[7] = target: Neu5Ac(a2-3)Gal(b1-4)[Fuc(a1-3)]GlcNAc6S
How it was run: as §1

[8] = target: Neu5Ac(a2-3)Gal6S(b1-4)GlcNAc
How it was run: as §1

[9] = target: Neu5Ac(a2-3)Gal6S(b1-4)[Fuc(a1-3)]GlcNAc
How it was run: as §1

Neu5Ac(a2-3)GalNAc = target: Neu5Ac(a2-3)GalNAc
How it was run: as §1

[10] = target: Neu5Ac(a2-3)GalNAc(b1-4)GlcNAc
How it was run: as §1

[11] = target: Neu5Ac(a2-3)[GalNAc(b1-4)]Gal(b1-4)Glc
How it was run: as §1

[12] = target: Neu5Ac(a2-3)[GalNAc(b1-4)]Gal(b1-4)GlcNAc
How it was run: as §1

[13] = target: Neu5Ac(a2-3)[Neu5Ac(a2-6)]GalNAc
How it was run: as §1

Neu5Ac(a2-6)Gal = target: Neu5Ac(a2-6)Gal
How it was run: as §1

Neu5Ac(a2-6)Gal(b1-4)Glc = target: Neu5Ac(a2-6)Gal(b1-4)Glc
How it was run: as §1

[14] = target: Neu5Ac(a2-6)Gal(b1-4)GlcNAc
How it was run: as §1

[15] = target: Neu5Ac(a2-6)Gal(b1-4)GlcNAc(b1-2)Man(a1-3)Man(b1-4)GlcNAc(b1-4)GlcNAc
How it was run: as §1

[16] = target: Neu5Ac(a2-6)Gal(b1-4)GlcNAc(b1-2)Man(a1-3)[Gal(b1-4)GlcNAc(b1-2)Man(a1-6)]Man(b1-4)GlcNAc(b1-4)GlcNAc
How it was run: as §1

[17] = target: Neu5Ac(a2-6)Gal(b1-4)GlcNAc(b1-2)Man(a1-3)[GlcNAc(b1-2)Man(a1-6)]Man(b1-4)GlcNAc(b1-4)GlcNAc
How it was run: as §1

[18] = target: Neu5Ac(a2-6)Gal(b1-4)GlcNAc(b1-2)Man(a1-3)[GlcNAc(b1-2)Man(b1-4)GlcNAc(b1-2)Man(a1-6)]Man(b1-4)GlcNAc(b1-4)GlcNAc
How it was run: as §1

[19] = target: Neu5Ac(a2-6)Gal(b1-4)GlcNAc(b1-2)Man(a1-3)[Man(a1-6)]Man(b1-4)GlcNAc(b1-4)GlcNAc
How it was run: as §1

[20] = target: Neu5Ac(a2-6)Gal(b1-4)GlcNAc(b1-2)Man(a1-3)[Neu5Ac(a2-6)Gal(b1-4)GlcNAc(b1-2)Man(a1-6)]Man(b1-4)GlcNAc(b1-4)GlcNAc
How it was run: as §1

[21] = target: Neu5Ac(a2-6)Gal(b1-4)GlcNAc(b1-2)Man(a1-6)Man(b1-4)GlcNAc(b1-4)GlcNAc
How it was run: as §1

[22] = target: Neu5Ac(a2-6)Gal(b1-4)GlcNAc(b1-2)Man(a1-6)[Gal(b1-4)GlcNAc(b1-2)Man(a1-3)]Man(b1-4)GlcNAc(b1-4)GlcNAc
How it was run: as §1

[23] = target: Neu5Ac(a2-6)Gal(b1-4)GlcNAc(b1-2)Man(a1-6)[GlcNAc(b1-2)Man(a1-3)]Man(b1-4)GlcNAc(b1-4)GlcNAc
How it was run: as §1

[24] = target: Neu5Ac(a2-6)Gal(b1-4)GlcNAc(b1-2)Man(a1-6)[Man(a1-3)]Man(b1-4)GlcNAc(b1-4)GlcNAc
How it was run: as §1

[25] = target: Neu5Ac(a2-6)Gal(b1-4)GlcNAc(b1-3)Gal(b1-3)GlcNAc
How it was run: as §1

B1: Flo5 (Saccharomyces cerevisiae), P38894 (protein)
chain: MGSSHHHHHHSSGLVPRGSHMSGATEACLPAGQRKSGMNINFYQYSLKDSSTYSNAAYMAYGYASKTKLGSVGGQTDISIDYNIPCVSSSGTFPCPQEDSYGNWGCKGMGACSNSQGIAYWSTDLFGFYTTPTNVTLEMTGYFLPPQTGSYTFSFATVDDSAILSVGGSIAFECCAQEQPPITSTNFTINGIKPWDGSLPDNITGTVYMYAGYYYPLKVVYSNAVSWGTLPISVELPDGTTVSDNFEGYVYSFDDDLSQSNCTIPDPSIH
**Q.** B1 was tested. Which “glycan array binding signal (z-score)” value [1] did it give?
**A.** The value was -0.106.

**Q.** And the “glycan array binding signal (z-score)” value [2]?
**A.** The value was -0.199.

**Q.** And the “glycan array binding signal (z-score)” value [3]?
**A.** The value was 0.203.

**Q.** What about the “glycan array binding signal (z-score)” value [4] of the same binder?
**A.** The value was -0.127.

**Q.** What about the “glycan array binding signal (z-score)” value [5] of the same binder?
**A.** Its value is -0.282.

**Q.** And the “glycan array binding signal (z-score)” value [6]?
**A.** Its value is -0.174.

**Q.** What about the “glycan array binding signal (z-score)” value [7] of the same binder?
**A.** Its value is -0.134.

**Q.** And the “glycan array binding signal (z-score)” value [8]?
**A.** Its value is -0.142.

**Q.** And the “glycan array binding signal (z-score)” value [9]?
**A.** Its value is -0.177.

**Q.** What about the “glycan array binding signal (z-score)” value (Neu5Ac(a2-3)GalNAc) of the same binder?
**A.** The value was -0.279.

**Q.** What about the “glycan array binding signal (z-score)” value [10] of the same binder?
**A.** The value was -0.104.

**Q.** And the “glycan array binding signal (z-score)” value [11]?
**A.** Its value is -0.147.

**Q.** What about the “glycan array binding signal (z-score)” value [12] of the same binder?
**A.** Its value is -0.229.

**Q.** What about the “glycan array binding signal (z-score)” value [13] of the same binder?
**A.** The value was -0.18.

**Q.** What about the “glycan array binding signal (z-score)” value (Neu5Ac(a2-6)Gal) of the same binder?
**A.** The value was -0.036.

**Q.** What about the “glycan array binding signal (z-score)” value (Neu5Ac(a2-6)Gal(b1-4)Glc) of the same binder?
**A.** Its value is -0.16.

**Q.** What about the “glycan array binding signal (z-score)” value [14] of the same binder?
**A.** The value was -0.16.

**Q.** What about the “glycan array binding signal (z-score)” value [15] of the same binder?
**A.** The value was -0.031.

**Q.** And the “glycan array binding signal (z-score)” value [16]?
**A.** The value was -0.172.

**Q.** And the “glycan array binding signal (z-score)” value [17]?
**A.** The value was -0.108.

**Q.** What about the “glycan array binding signal (z-score)” value [18] of the same binder?
**A.** Its value is -0.094.

**Q.** What about the “glycan array binding signal (z-score)” value [19] of the same binder?
**A.** The value was -0.068.

**Q.** What about the “glycan array binding signal (z-score)” value [20] of the same binder?
**A.** Its value is 0.258.

**Q.** And the “glycan array binding signal (z-score)” value [21]?
**A.** The value was -0.161.

**Q.** What about the “glycan array binding signal (z-score)” value [22] of the same binder?
**A.** The value was -0.08.

**Q.** What about the “glycan array binding signal (z-score)” value [23] of the same binder?
**A.** Its value is -0.106.

**Q.** What about the “glycan array binding signal (z-score)” value [24] of the same binder?
**A.** Its value is -0.179.

**Q.** What about the “glycan array binding signal (z-score)” value [25] of the same binder?
**A.** The value was -0.098.
